Test results taken from article PMC11829017, “Nucleotide-induced hyper-oligomerization inactivates transcription termination factor ρ” (Nature Communications, 2025).

B1: E. coli ρ S84C, untagged (enzyme)
chain: not shown
modifications: C84 crosslinked by BMOE
notes: transcription termination factor Rho (ρ), E. coli MG1655, S84C; also called S84C ρ; source: E. coli BL21 (DE3), purified (heparin, Sephacryl S-300)
B2: E. coli ρ G150D with a C-terminal octahistidine tag (enzyme)
chain: not shown
notes: transcription termination factor Rho (ρ), E. coli MG1655, connector substitution G150D; also called G150D•H8; G150D^F-ADP; source: E. coli BL21 (DE3), purified (HisTrap, heparin); for cryoEM E. coli RIL (BL21), with a final Superdex 200 step; not shown: His8 (H8), C-terminal, kept
B3: E. coli ρ with the sensor cysteines C84/C405 (X1), untagged (enzyme)
chain: not shown
modifications: cysteines crosslinked by BMOE (bismaleimidoethane) in the crosslinking assays and in the cryoEM sample
notes: also called WT^X1; ρ^X1; source: E. coli BL21 (DE3), purified (heparin, Sephacryl S-300)

Legend:
[1] = biological target: the molecule itself; experiment: cross-linking; BMOE (0.5 mM) crosslinking of 1 μM purified untagged ρ in PN23 buffer with ppGpp or pppGpp; LDS-PAGE
[2] = biological target: the molecule itself; experiment: cryo-EM structure; ρ G150D•H8 or G152D•H8 (2.9 mg/ml) incubated with 2.2 mM ADP-BeF for 5 min at room temperature; helical filaments, ADP bound

Protein | stoichiometry N [1] | stoichiometry N [2]
B1 | 12 | 
B2 |  | > 18
B3 | 12 | 
